# Data: the supplement of paper PMC4604168 (melanoma cell lines)
# This is one part of the list. Many values rest on one well or one pass, so single values are uncertain.
# Legend:
# Test in all cases: cell count relative to DMSO control; melanoma cells; higher = more viable cells
# Conditions in all cases: library dose: standard library concentration; 72 h
# G361 = tested on: G361
# IPC-298 = tested on: IPC-298
# IST-MEL1 = tested on: IST-MEL1
# LB2518-MEL = tested on: LB2518-MEL
# LOXIMVI = tested on: LOXIMVI
# MEL-HO = tested on: MEL-HO
# MZ2-MEL = tested on: MZ2-MEL
# MeWo = tested on: MeWo
# RPMI7951 = tested on: RPMI7951
# RVH-421 = tested on: RVH-421
# SkMel28 = tested on: SkMel28
# SkMel2 = tested on: SkMel2
# SkMel30 = tested on: SkMel30
# SkMel5 = tested on: SkMel5
# UACC257 = tested on: UACC257
# UACC62 = tested on: UACC62
# WM115 = tested on: WM115
# WM1716 = tested on: WM1716
# WM1745 = tested on: WM1745
# WM3526 = tested on: WM3526
# 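Also: cells treated in 1,536-well plates, then fixed and DAPI-stained, with nuclei counted from automated high-throughput microscope images.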
Structure (SMILES),cell count (G361),cell count (IPC-298),cell count (IST-MEL1),cell count (LB2518-MEL),cell count (LOXIMVI),cell count (MEL-HO),cell count (MZ2-MEL),cell count (MeWo),cell count (RPMI7951),cell count (RVH-421),cell count (SkMel28),cell count (SkMel2),cell count (SkMel30),cell count (SkMel5),cell count (UACC257),cell count (UACC62),cell count (WM115),cell count (WM1716),cell count (WM1745),cell count (WM3526)
"Cc1cc(N2CCOCC2)cc2[nH]c(-c3c(NC[C@@H](O)c4cccc(Cl)c4)cc[nH]c3=O)nc12 + O=C(O)c1ccc(-c2c[nH]c3ncc(-c4ccccc4)cc23)cc1C1CCCC1 [GSK650394] (first compound 1 µM, partner dose 0.8 µM)",56%,70%,59.9%,87.8%,44.6%,66%,89.4%,59%,58.6%,73.5%,63.5%,73.5%,76%,59.3%,76%,97.5%,117%,93.6%,46.6%,65.1%
"O=C(O)c1ccc2c(c1)nc(Nc1cccc(Cl)c1)c1ccncc12 + Nc1ccn([C@@H]2O[C@H](CO)[C@@H](O)C2(F)F)c(=O)n1 [gemcitabine] (first compound 2 µM, partner dose 0.002 µM)",35.3%,36.6%,32.3%,48.6%,57.7%,35.1%,58.1%,36.4%,41.5%,30.6%,64.9%,75.8%,77.5%,56%,103%,72.5%,64.7%,52.8%,41%,58.5%
"O=C(Nc1cc(C(F)(F)F)cc(C(F)(F)F)c1)c1cc(Cl)ccc1O + CCCS(=O)(=O)Nc1ccc(F)c(C(=O)c2c[nH]c3ncc(Cl)cc23)c1F [PLX4720] (first compound 0.08 µM, partner dose 0.4 µM)",77.9%,87.8%,77.1%,84.5%,91.7%,78.4%,80.4%,93.2%,122%,82.3%,57.7%,92.6%,92.5%,79.3%,104%,56.8%,65.5%,66.6%,87.3%,66.3%
"Cc1cc(N2CCOCC2)cc2[nH]c(-c3c(NC[C@@H](O)c4cccc(Cl)c4)cc[nH]c3=O)nc12 + CCCCCCCCCCCC1=C(O)C(=O)C=C(O)C1=O [Embelin] (first compound 1 µM, partner dose 6 µM)",59.5%,57.6%,63.5%,69.2%,95%,73.8%,74.5%,81.2%,85.1%,79.4%,86.5%,73.5%,77.2%,88%,79.9%,117%,91.6%,113%,36.2%,87.6%
"O=C(Nc1ccccc1)c1cc([N+](=O)[O-])ccc1Cl + COc1ccc2c(c1)CCC1C2CCC2(C)C(NCCCCCCN3C(=O)C=CC3=O)CCC12 [U73122] (first compound 10 µM, partner dose 2 µM)",72.7%,99.8%,95.6%,88.3%,60.5%,82.3%,81.3%,60.5%,44.8%,47.9%,49.5%,82.7%,107%,90.3%,85.8%,90.2%,76.4%,79.7%,64.6%,95.5%
"Cc1cc(N2CCOCC2)cc2[nH]c(-c3c(NC[C@@H](O)c4cccc(Cl)c4)cc[nH]c3=O)nc12 + COc1cc2c(Oc3ccc4[nH]c(C)cc4c3F)ncnc2cc1OCCCN1CCCC1 [cediranib] (first compound 1 µM, partner dose 2 µM)",73.3%,93.4%,92.6%,80.3%,36.1%,88.7%,97.8%,63%,36.9%,81.6%,60.8%,74.2%,93.4%,61.7%,96.3%,92.5%,85%,117%,49.8%,76.1%
"Cc1cc(N2CCOCC2)cc2[nH]c(-c3c(NC[C@@H](O)c4cccc(Cl)c4)cc[nH]c3=O)nc12 + OCCn1cc(-c2cnc3nnn(Cc4ccc5ncccc5c4)c3n2)cn1 [PF04217903] (first compound 1 µM, partner dose 5 µM)",81.5%,101%,92.1%,96.5%,88.1%,114%,117%,75%,68.5%,118%,114%,77.3%,82.5%,76.7%,92.9%,101%,67.5%,87.9%,70.9%,70.8%
"O=C(Nc1ccccc1)c1cc([N+](=O)[O-])ccc1Cl + Oc1nc(-c2ccc(C(F)(F)F)cc2)nc2c1CSCC2 [XAV939] (first compound 10 µM, partner dose 10 µM)",73.5%,89.1%,101%,71.9%,87.4%,78%,73.8%,90.3%,61.5%,82.4%,67.7%,87.8%,99.7%,97.4%,78.3%,61.2%,84.3%,81.3%,66%,97.6%
"O=C(O)c1ccc2c(c1)nc(Nc1cccc(Cl)c1)c1ccncc12 + C=CCNC1=C2C[C@@H](C)C[C@H](OC)[C@H](O)[C@@H](C)/C=C(\C)[C@H](OC(N)=O)[C@@H](OC)/C=C\C=C(/C)C(=O)NC(=CC1=O)C2=O [Tanespimycin] (first compound 2 µM, partner dose 0.01 µM)",59.4%,81%,44%,73.6%,67.1%,61.6%,73.5%,62.2%,14.6%,79.9%,35.1%,77.2%,72.7%,42.9%,95%,36.1%,11%,103%,46.9%,50.7%
